55 compounds from ChEMBL document CHEMBL4888484, “Replenishing the malaria drug discovery pipeline: Screening and hit evaluation of the MMV Hit Generation Library 1 (HGL1) against asexual blood stage Plasmodium falciparum ,using a nano luciferase reporter read-out” (2022) can be followed below.

Structures are written as SMILES. Screen size: about 150,000 compounds; about 540 (0.36%) showed an effect of 50% or more. The list shows a part of the results.

A word on the % Inhibition: it is the relative decrease from the control value, in per cent.

The test system of the assay is Plasmodium falciparum. Nature of the assay: Primary screen in NF54 nanoGlo assay, in single point, at 2uM, 72h; a lower Z score goes with more inhibition. The note with it: timepoint 72 hour. The assay is classed as functional, Erythrocyte.
Take `Cc1oc2ncnc(NC(=O)[C@@H]3COCCO3)c2c1C`: the “% Inhibition” value is -7% and the Z score is 0.96.

In the case of `CCCS(=O)(=O)N1CCn2nc(-c3nc4cc(OC)ccc4[nH]3)cc2C1`, the “% Inhibition” value is recorded as -3% and the Z score was determined as 0.46.

Regarding `C[C@H]1CCCCN1CCCNC(=O)c1cc2n(n1)CCN(Cc1cccc(Cl)c1)C2=O`, the “% Inhibition” value was -7% and the Z score is reported as 0.83.

On to `Cc1cc(CC(=O)NCCc2noc(C3CCC3)n2)on1`, for which the “% Inhibition” value is on record as -7% and the Z score turned out to be 1.31.

For the compound `CCCN(CCC(=O)N1CCNCC1)S(=O)(=O)c1c(C)cc(C)cc1C`, the “% Inhibition” value was -6% and the Z score was 1.15.

Consider `CC(C)CC(=O)N1C[C@@H](CO)[C@H](NC(=O)c2ccccc2)C1`, for which the “% Inhibition” value is -12% and the Z score turned out to be 2.13.

On to `Cc1ccn(CCC(=O)N2CCN(C)C[C@@H]2c2ccccc2)n1`, for which the “% Inhibition” value came to 6% and the Z score is -1.11.

Regarding `C[C@]1(c2ccc3c(c2)OCCO3)NC(=O)NC1=O`, the “% Inhibition” value was -2% and the Z score is 0.17.

As to `CCC[C@H](C)c1cc(NC(=O)c2cc[nH]n2)[nH]n1`, the “% Inhibition” value is recorded as -9% and the Z score stood at 0.91.

For `C[C@@H](c1ccccc1)N1C(=O)C(=O)N(CCn2cncn2)C1=O`, the “% Inhibition” value is listed as -3% and the Z score is 0.54.

As for `Cc1cc(CNC(=O)c2cc(-n3ccnc3C)ccn2)ccn1`, the “% Inhibition” value is on record as -4% and the Z score was determined as 0.68.

For the compound `Cc1cc(C(=O)Nc2ccc3c(c2)CCC3)c(C)o1`, the “% Inhibition” value was 5% and the Z score was -0.71.

As for `C[C@H](O)CN(C)S(=O)(=O)Cc1ccccc1`, the “% Inhibition” value is -9% and the Z score is 0.96.

As for `O=C(Cc1n[nH]c2ccc(F)cc12)NCCCc1ccccc1`, the “% Inhibition” value was -8% and the Z score is 1.2.

`COCCN1CCC[C@@H]1CNC(=O)CNC(=O)OCc1ccccc1`: the “% Inhibition” value is -6% and the Z score was determined as 0.91.

Regarding `CN(CCCF)[C@@H]1c2ccccc2N(C(=O)OC(C)(C)C)C[C@H]1O`, the “% Inhibition” value is reported as 7% and the Z score is -1.14.

In the case of `Cc1ccc(CC(=O)Nc2cc(NC(=O)c3ccc4c(c3)OCO4)ccc2F)cc1`, the “% Inhibition” value was 0% and the Z score is -0.04.

On to `c1cc(-c2noc(C3CC3)n2)c2cc[nH]c2n1`, for which the “% Inhibition” value is reported as -6% and the Z score was found to be 1.04.

For `C[C@H]1CNCCN1C(=O)CCCOc1ccc(F)cc1F`, the “% Inhibition” value was -6% and the Z score amounted to 0.81.

With `COCCNC(=O)c1cc2n(n1)CCN(Cc1ccc(Cl)c(Cl)c1)C2=O`, the “% Inhibition” value is on record as -4% and the Z score is reported as 0.5.

For `C[C@@H](Cc1cccs1)NC(=O)NC1CCCCC1`, the “% Inhibition” value is on record as -13% and the Z score worked out at 1.65.

Consider `Cc1ccc(NS(=O)(=O)c2ccc3c(c2)Cc2cc(S(=O)(=O)Nc4ccc(C)cc4C)ccc2-3)c(C)c1`, for which the “% Inhibition” value is given as -10% and the Z score is reported as 1.29.

For `CCCc1cc(C(=O)N2CCC(c3ccccc3)CC2)sc1C`, the “% Inhibition” value was -1% and the Z score was found to be 0.2.

`NC(=O)Cn1c(=O)n(Cc2ccccc2F)c(=O)c2nscc21`: the “% Inhibition” value is -2% and the Z score was 0.23.

Consider `COc1ccnc(CN2CC(O)CC2c2ccc(F)cc2)c1` (stereo not given), for which the “% Inhibition” value is listed as -14% and the Z score was 1.72.

Consider `CC[C@@H](Cc1ccccc1)N(CC)C(=O)c1ccon1`, for which the “% Inhibition” value is recorded as -5% and the Z score was found to be 0.7.

As for `COCCCCN(C)C(=O)Cc1cccc2nsnc12`, the “% Inhibition” value is reported as -13% and the Z score was determined as 1.4.

Consider `Cc1cc(F)cc(CN2[C@@H]3CN(S(=O)(=O)c4ccc(Cl)cc4)C[C@@H]3OCCS2(=O)=O)c1`, for which the “% Inhibition” value was -9% and the Z score was 1.39.

For `Nc1ccc(C(=O)N2C[C@@H]3CC[C@H]2CN(C(=O)c2cnccn2)C3)cn1`, the “% Inhibition” value was found to be 0% and the Z score is -0.08.

Turning to `O=C1CC[C@]2(c3ccc4c(c3)CCCC4)NCCCN12`, the “% Inhibition” value is -4% and the Z score stood at 0.53.

With `C[C@H](NC(=O)c1cc(-c2ccccc2)cn1C)c1ccccn1`, the “% Inhibition” value was -5% and the Z score is listed as 0.66.

As for `CCNc1nc(NCC)nc(Oc2ccc(=O)n(CCOc3ccccc3)n2)n1`, the “% Inhibition” value was -16% and the Z score is recorded as 1.43.

Consider `Cc1n[nH]nc1C(=O)N1CCCC[C@H]1C(=O)Nc1ccc(Cl)cc1Cl`, for which the “% Inhibition” value is -6% and the Z score amounted to 0.9.

Consider `CCc1nn(CC)c(=O)c2cc(S(=O)(=O)Nc3ccccc3)cn12`, for which the “% Inhibition” value was found to be 1% and the Z score is on record as -0.17.

On to `O=C(CN1CCn2nc([C@@H](O)CO)cc2C1)Nc1ccc(Cl)cn1`, for which the “% Inhibition” value is given as -24% and the Z score was determined as 2.11.

With `Cc1nc(NC(=O)N(C)CCOCC2CC2)c(-c2ccccc2)s1`, the “% Inhibition” value is on record as -11% and the Z score is recorded as 1.08.

As to `COc1ccc(NCc2c(C)nn(C)c2C)c(C)n1`, the “% Inhibition” value is -12% and the Z score came to 1.39.

As to `C[C@H](O)c1cn(C2CN(C(=O)C(c3ccccc3)c3ccccc3)C2)nn1`, the “% Inhibition” value is on record as 3% and the Z score is -0.24.

For the compound `Nc1ccnc(N2CCC3(CCNC(=O)CC3)CC2)n1`, the “% Inhibition” value was -10% and the Z score came to 1.35.

For `CCn1c(=O)c(C(=O)CN(Cc2ccccc2)Cc2ccccc2)c(N)n(Cc2ccccc2)c1=O`, the “% Inhibition” value was -1% and the Z score came out at 0.14.

For the compound `COC1(c2ccnn2C)CN(c2nc(C)cc(C(F)(F)F)n2)C1`, the “% Inhibition” value is -2% and the Z score is 0.24.

Turning to `Cc1cccc(OCc2ccc(C(=O)N(C)[C@H]3CCS(=O)(=O)C3)o2)c1`, the “% Inhibition” value is on record as -6% and the Z score turned out to be 0.85.

`NC(=O)C1CCN(CCCNC(=O)c2ccc3ccccc3n2)CC1`: the “% Inhibition” value is -1% and the Z score amounted to 0.06.

As to `CN(C(=O)C1c2ccccc2Oc2ccccc21)C1CCCCC1`, the “% Inhibition” value is listed as -6% and the Z score came out at 0.66.

Take `CCCn1nc(C)cc1NC(=O)N1CCN(c2ccc(C(C)=O)cc2)CC1`: the “% Inhibition” value is listed as -4% and the Z score was 0.53.

On to `CCc1[nH]nc(-c2ccc3c(c2)OCO3)c1NC(=O)c1cccc(OC)c1`, for which the “% Inhibition” value is given as -13% and the Z score was 1.8.

Regarding `Cn1cnn(CC(=O)N2CCC(c3nc4c(s3)CCC4)CC2)c1=O`, the “% Inhibition” value is on record as -6% and the Z score is recorded as 1.15.

Regarding `CCn1ccc(C(=O)NCCc2noc(C)n2)n1`, the “% Inhibition” value is given as -11% and the Z score is 1.34.

Take `O=C(CCc1nnc2ccc(N3CCOCC3)nn12)N1CCc2ccccc2C1`: the “% Inhibition” value was -25% and the Z score was determined as 2.42.

In the case of `Cc1ccncc1C(=O)N1CC(N2CC(F)(F)C[C@H]2CN(C)C)C1`, the “% Inhibition” value is listed as -16% and the Z score is 1.85.

As for `CC(C)n1cc(S(=O)(=O)N(C)c2nsc3ccccc23)cn1`, the “% Inhibition” value is reported as -22% and the Z score turned out to be 3.01.

Take `O=C(O)c1snc2ccc(Br)cc12`: the “% Inhibition” value came out at 26% and the Z score is given as -3.7.

Regarding `C[C@H](NCC(=O)N(C)C)c1ccccc1`, the “% Inhibition” value is -5% and the Z score is on record as 1.09.

On to `Cc1n[nH]c(C)c1CCc1nncn1-c1cccnc1`, for which the “% Inhibition” value is 7% and the Z score was -1.19.

Consider `Cc1cc(C)nc(N[C@H](c2ccc(OC(F)F)cc2)c2cc(C)sc2NC(=O)c2ccccc2)n1`, for which the “% Inhibition” value was -7% and the Z score is reported as 1.3.
